Reference: PubChem BioAssay AID1508624 (National Center for Advancing Translational Sciences (NCATS), 2021)
About 120 (0.25%) of roughly 48,000 compounds were called active. Another 4% or so got no clear call; they are omitted. The call rests on the fitted dose curve; in most records, active means well fitted activation curve with a large enough effect; inconclusive means small, poorly fitted or top-dose-only effect, or another doubt; inactive means no such curve, though single readings can be large or run the other way. The list shows a part of the results.

test: Primary qHTS for Identification of Small Molecule Activators of Huntingtin-Antisense Promoter Activity; conditions: HEK293 HTT-AS promoter firefly luciferase reporter, 24 h; series mostly up to 57.5 µM; activity change, positive = activation: at the top concentration; further: nearly all actives have a fitted effect of over 55% in size
How it was run: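 HEK293 luciferase promoter-reporter cells (2,500/well) plated 24 h, then compounds added at up to 57.5 uM final for 24 h at 37 °C. Firefly luminescence by Dual-Glo, normalized to vehicle (0%) and zero RLU (-100%).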

Activity change, positive = activation, inactive:
CCN1CCN(C(c2ccc(F)cc2)c2c(O)cc(C)n(CCOC)c2=O)CC1 (centres undefined) -17.4%
CCc1cccc2c(-c3ccc(F)cc3)nc(SCC(=O)Nc3ccccc3)nc12 -13.5%
CC(C)CCNC(=O)C1CCN(C(=O)N2CCOc3ccc(Cl)cc32)CC1 -13.7%
COc1ccc(C(=O)Nc2ccc(-c3cc4ccccc4oc3=O)c(C)c2)cc1OC -34.8%
CCc1ccc(Sc2cc(C(=O)NC(C)CC)c3ccccc3n2)cc1 (centres undefined) -21.9%
COc1cccc(NC(=O)c2cnn(-c3ccccc3)c2-n2cccc2)c1 -22%
CCOc1ccc(OCC(=O)Nc2nnc3n2CCS3)cc1 -0.425%
COc1ccccc1-n1c(/C=C/c2c(C)n(C)c3ccccc23)nc2ccccc2c1=O -30.3%
COc1ccc(-c2noc(CSc3nnc(-c4ccncc4)n3-c3ccc(C)cc3)n2)cc1 -38.2%
CCOc1ccc(Sc2cc(C(=O)NCCc3ccccc3)c3ccccc3n2)cc1 0.501%
CCOC(=O)C(Cc1c[nH]c2ccccc12)NC(=O)COc1ccc(Cl)c(C)c1 (centres undefined) -16.6%
COc1cccc(CNC(=O)C2CCC(CNS(=O)(=O)c3ccc(Br)s3)CC2)c1 (centres undefined) -16.7%
COc1ccccc1CNc1ccc(-c2nc(-c3ccncc3)no2)cc1[N+](=O)[O-] -8.1%
COc1ccc(CNC(=O)CC(c2ccc(OC)c(OC)c2)N2Cc3ccccc3C2=O)cc1 (centres undefined) -33.8%
CCOc1ccc(NC(=O)CSC2=Nc3ccccc3C3=NC(CC(=O)NCc4ccco4)C(=O)N23)cc1 (centres undefined) -6.69%
Cc1cc2ccccc2n1CCNC(=O)c1cccc(Cl)c1 -16.7%
CC(C)c1ccc(NC(=O)c2cc(S(=O)(=O)NCc3ccccc3Cl)ccc2F)cc1 -29.9%
Cc1ccc(N(CC(=O)Nc2ccc(C)c(F)c2)S(=O)(=O)c2c(C)n[nH]c2C)cc1 -22.4%
N#Cc1c[nH]n2c(NC3CCCC3)c(-c3cccc(Cl)c3)nc12 8.68%
CCOc1cc(C(=O)N2CCc3c([nH]c4ccccc34)C2c2ccccc2)cc(OCC)c1OCC (centres undefined) -26.2%
COc1ccc(C)cc1NC(=O)Cn1c(=O)ccc2cc(S(=O)(=O)N3CCCC3)ccc21 -37%
CCOC(=O)c1sc2ncn(CC(=O)Nc3ccc(C)cc3Br)c(=O)c2c1C -10.4%
O=C(Cn1c(=O)nc(-c2ccccc2)c2ccccc21)NCc1ccc(F)cc1 4.12%
O=C(Nc1ccccc1)N(Cc1ccc(F)cc1)c1ccccn1 -12.9%
C=Cc1ccc(CN2C(=O)c3ccccc3Sc3ccc(C(=O)OCc4ccco4)cc32)cc1 -26.9%
Cc1cc(O)c(C(c2ccccc2)N2CCN(C)CC2)c(=O)n1Cc1ccco1 (centres undefined) -14%
COc1ccc(-c2noc(CN(C(C)C)S(=O)(=O)c3ccc(Br)cc3)n2)cc1 -27.7%
CC1=C(C(=O)N2CCN(c3cccc(C)c3C)CC2)C2(CCCCC2)OC1=O -7.32%
Cc1cccc(NC2=CC(c3cccc(Br)c3)N(c3cccc(C)c3)C2=O)c1 (centres undefined) -4.76%
CCOC(=O)c1c(C)[nH]c(C)c1S(=O)(=O)NCC(=O)N1CCN(c2cccc(C)c2)C(C)C1 (centres undefined) -17.9%
O=S(=O)(c1ccc2c(c1)CCN2)N1CCCCCC1 -2.32%
Cc1ccc2c(c1)c1c(c(=O)n(Cc3ccccc3)c(=O)n1CC(=O)NCc1ccccc1Cl)n2C -2.91%
CCc1ccc(NCc2cc3cc(OC)c(OC)cc3n(CC(=O)Nc3cc(C)ccc3C)c2=O)cc1 -8.18%
CN(C(=O)CN1C(=O)CCSc2ccc(S(=O)(=O)N3CCCC3)cc21)c1ccccc1 -8.32%
COc1ccc(C(C)n2c(C)c3c(C)nnc(C)c3c2C)cc1 (centres undefined) -17.5%
CCC(C)OC(=O)/C(C#N)=C\c1ccc(-c2cccc(C(F)(F)F)c2)o1 (centres undefined) -0.934%
Cc1cccc(C)c1Nc1nc2ccccc2nc1NS(=O)(=O)c1ccccc1 -44.3%
COc1ccc(S(=O)(=O)N(CC(=O)NCc2ccccc2)c2ccc(C)cc2)cc1OC -5.15%
CC1CCN(S(=O)(=O)c2ccc3c(c2)N(CC(=O)NC(C)C)C(=O)CO3)CC1 -11.4%
COc1cccc(CNC(=O)CSc2ncc(S(=O)(=O)c3ccc(Br)cc3)c(=O)[nH]2)c1 -7.75%
COc1ccc(CNC(=O)c2ccc3c(c2)CCN3S(=O)(=O)c2ccc(C)cc2)cc1 -22.7%
Cc1ccc(NC(=O)C2CCCN2S(=O)(=O)c2cccc3nsnc23)cc1Cl (centres undefined) -30.1%
COc1ccc(CNC(=O)CSc2ncc(S(=O)(=O)c3ccc(C)c(Cl)c3)c(=O)[nH]2)cc1 1.94%
Cc1ccccc1C(=O)N1CCN(CCc2ccccn2)CC1 -8.17%
CC1CCN(S(=O)(=O)c2ccc3c(c2)CCN3C(=O)Nc2ccc(Br)cc2)CC1 25.7%
Cc1ccc(CNC(=O)c2c(O)nc3c(C)cccn3c2=O)cc1 6.7%
CCN(CC)CCCNC(=O)c1ccc2c(c1)NC(=O)C(CS(=O)(=O)Cc1cccc(Br)c1)N2 (centres undefined) -21.9%
Cc1nc2ccc(S(=O)(=O)NC(CC(C)C)C(=O)N3CCN(c4ccc(F)cc4)CC3)cc2s1 (centres undefined) -38.6%
CN(C)c1ccc(CNS(=O)(=O)c2ccc3[nH]c4c(c3c2)CCCCC4)cc1 -37.3%
COc1ccc(Br)cc1CNC(=O)c1nn(-c2ccc(C)cc2)c(=O)c2c1c1ccccc1n2C -2.28%
NC(=O)NO
Clc1ccccc1C(c1ccccc1)(c1ccccc1)n1ccnc1
Cc1ccccc1-c1noc(-c2cccnc2N(C)Cc2ccc(Cl)cc2)n1 -20.1%
COc1ccc(CCNC(=O)CSc2nnnn2-c2cccc(C(C)=O)c2)cc1OC -13.6%
CO/N=C1\CN(c2nc3c(cc2F)c(=O)c(C(=O)O)cn3C2CC2)CC1CN (centres undefined) -12.1%
O=C(C1CC1)N1CCN(c2nc3c(Cl)cccc3s2)CC1 23.8%
CCOC(=O)c1cccc(NC(=O)CCC(=O)N2CC(C)Oc3ccc(C)cc32)c1 (centres undefined) -15.7%
CC[C@]1(O)C[C@@H]2CN(CCc3c([nH]c4ccccc34)[C@@](C(=O)OC)(c3cc4c(cc3OC)N(C)[C@H]3[C@@](O)(C(=O)OC)[C@H](OC(C)=O)[C@]5(CC)C=CCN6CC[C@]43[C@@H]65)C2)C1
Cc1ccc(C(=O)COC(=O)C(Cc2c[nH]c3ccccc23)NC(=O)c2ccc(C(C)(C)C)cc2)cc1 (centres undefined) -5.51%
Cc1cc(C)cc(NC(=O)CSc2nc(=O)n(Cc3ccccn3)c3c2CCC3)c1 -8.34%
CCOC(=O)C(C)Sc1nc(-c2ccccc2Cl)cc(-c2ccccc2)c1C#N (centres undefined) 8.18%
CCN(c1ccccc1)S(=O)(=O)c1ccc(-c2cc(C)no2)s1 -31.4%
Cc1ccc2[nH]c(=O)c(CN(C(=O)c3cccc(Cl)c3)C(C)(C)C)cc2c1 2.11%
Cc1ccccc1C(=O)Nc1cccc(C(=O)OCc2cc(=O)n3ccsc3n2)c1 19.7%
Cc1cccc(Oc2nc3c(c(=O)n(C)c(=O)n3C)n2Cc2ccccc2)c1C 3.03%
COc1ccc(-n2cc(-c3ccccc3)c3c(NC4CCCC4)ncnc32)cc1 -22.7%
C#C[C@]1(O)CC[C@@H]2[C@@H]3CCc4cc(O)ccc4[C@H]3CC[C@@]21C -34.8%
Cc1cccc(C)c1OCc1cc(=O)n2c3c(sc2n1)CCCC3 -9.84%
CC(C)CC(=O)Nc1cc(-c2ccccc2F)nn1-c1ccccc1 -15.1%
CC1=C(C(=O)Nc2ccc(C)cc2C)C(c2ccc(C(=O)O)cc2)n2nc(SCc3ccccc3)nc2N1 (centres undefined) -5.56%
CCOc1ccc(CNC(=O)CC(C)n2nc(C)cc2C)cc1OC (centres undefined) -14.6%
Cc1ccc2c(c1)c1c(c(=O)n(-c3ccccc3)c(=O)n1CC(=O)c1ccc(F)cc1)n2C -11.2%
Cc1ccc(NC(=O)c2ccc(CN3CC(=O)N4CCCCC4C3=O)cc2)cc1 (centres undefined) 5.08%
CCc1cccc(NC(=O)Cn2c(=O)n(-c3cccc(Cl)c3)c(=O)c3c2c2cc(C)ccc2n3C)c1 -12.6%
COc1ccc(OC)c(CNC(=O)c2cnc3c(C)cccn3c2=O)c1 -3.35%
CCc1nn2c(=O)cc(COC(=O)c3ccc(NC(=O)COc4ccc(C)cc4)cc3)nc2s1 -11.7%
Cn1c(SCC(=O)N2CCCc3ccccc32)ncc(C(=O)Nc2ccccc2)c1=O -25.5%
Cc1cc(C)cc(NC(=O)c2cnc3sc(N4CCCC4)nn3c2=O)c1 -22.6%
CCOC(=O)c1c(S(=O)(=O)N2CCC(C(=O)Nc3ccc(C)cc3C)CC2)c(C)n(C)c1C 16.5%
CCc1ccccc1NC(=O)c1nnn(Cc2ccc(Cl)cc2)c1N -14.7%
C[C@@H]1CC[C@@]2(OC1)OC1CC3C4CC=C5CC(O)CCC5(C)C4CCC3(C)C1[C@@H]2C (some centres undefined) -0.428%
COCCNC(=O)CSc1nc(-c2ccccc2)[nH]c1-c1ccc(OC)cc1 -15.7%
Cc1cc(CN2CCN(c3cccc(C)c3C)CC2)cs1 -12.2%
CCOC(=O)C1=C(CN2CCN(c3ccc(OC)cc3)CC2)NC(=O)NC1c1ccc(Cl)cc1 (centres undefined) -25%
CCOc1ccc(NC(=O)C2CCCN(S(=O)(=O)c3c(C)noc3/C=C/N(C)C)C2)cc1 (centres undefined) -23.4%
COc1cccc(-n2c(SCC(=O)Nc3nnc(C)s3)nc3c([nH]c4ccccc43)c2=O)c1 -24.3%
CC(C)Cn1c(=O)c2sccc2n2c(CCCC(=O)N3CCN(c4ccc(F)cc4)CC3)nnc12 3.02%
Fc1ccc2[nH]c(-c3cccs3)cc2c1 14.7%
O=C(Nc1cccc(C(F)(F)F)c1)c1cc2nc(-c3ccc4c(c3)OCO4)cc(C(F)(F)F)n2n1 -6.36% [at 11.5 µM, percent change from vehicle, -100% = no light]
NCCc1nc2cccnc2n1-c1ccccc1 0.756%
Cc1ccc(-c2nc(CSc3nncn4c3cc3occc34)c(C)o2)cc1 1.7%
COc1ccc(C)cc1NC(=O)N1CC(C)Sc2ccccc21 (centres undefined) -11.7%
Cc1ccc(Cn2cc(C(=O)c3ccc4c(c3)OCO4)c(=O)c3cc(C)ccc32)cc1 -28.3%
CC(C)(C)C(O)/C=C/c1ccc2c(c1)OCO2 (centres undefined) 13.1%
